Reference: the supplement of paper PMC8728848
The other results are listed elsewhere or left out.

Legend:
Assay in all cases: glycan array binding signal (z-score within array); higher = stronger binding
Conditions in all cases: glycan notation: IUPAC condensed, linker removed
GlcNAc(b1-4)GlcNAc = biological target: GlcNAc(b1-4)GlcNAc
Summary of the method: (§1)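 Glycan array data were curated from 3228 arrays in the Consortium for Functional Glycomics database and kept only where the protein sequence was available. Glycan names were converted to IUPAC-condensed notation, and columns mapping to the same glycan were averaged. The binding signal is a within-array Z-score, averaged across arrays of the same protein sequence at different concentrations or buffers and across linkers. Negative Z-scores can be read as non-binding.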

[1] = biological target: GlcNAc(b1-4)GlcNAc(b1-4)GlcNAc
Summary of the method: as §1

[2] = biological target: GlcNAc(b1-4)GlcNAc(b1-4)GlcNAc(b1-4)GlcNAc(b1-4)GlcNAc
Summary of the method: as §1

[3] = biological target: GlcNAc(b1-4)GlcNAc(b1-4)GlcNAc(b1-4)GlcNAc(b1-4)GlcNAc(b1-4)GlcNAc
Summary of the method: as §1

[4] = biological target: GlcNAc(b1-4)[GlcNAc(b1-6)]GalNAc
Summary of the method: as §1

[5] = biological target: GlcNAc(b1-6)Gal(b1-4)GlcNAc
Summary of the method: as §1

GlcNAc(b1-6)GalNAc = biological target: GlcNAc(b1-6)GalNAc
Summary of the method: as §1

[6] = biological target: GlcNAc6S(b1-3)Gal(b1-4)GlcNAc
Summary of the method: as §1

[7] = biological target: HexA(a1-3)GalNAc4S(b1-4)GlcA(b1-3)GalNAc4S(b1-4)GlcA(b1-3)GalNAc4S(b1-4)GlcA(b1-3)GalNAc4S(b1-4)GlcA(b1-3)GalNAc4S(b1-4)GlcA(b1-3)GalNAc4S(b1-4)GlcA(b1-3)GalNAc4S(b1-4)GlcA(b1-3)GalNAc4S
Summary of the method: as §1

[8] = biological target: HexA(a1-3)GalNAc4S(b1-4)IdoA(a1-3)GalNAc4S(b1-4)IdoA(a1-3)GalNAc4S(b1-4)IdoA(a1-3)GalNAc4S(b1-4)IdoA(a1-3)GalNAc4S(b1-4)IdoA(a1-3)GalNAc4S(b1-4)IdoA(a1-3)GalNAc4S(b1-4)IdoA(a1-3)GalNAc4S
Summary of the method: as §1

[9] = biological target: HexA(a1-3)GalNAc6S(b1-4)GlcA(b1-3)GalNAc6S(b1-4)GlcA(b1-3)GalNAc6S(b1-4)GlcA(b1-3)GalNAc6S(b1-4)GlcA(b1-3)GalNAc6S(b1-4)GlcA(b1-3)GalNAc6S(b1-4)GlcA(b1-3)GalNAc6S(b1-4)GlcA(b1-3)GalNAc6S
Summary of the method: as §1

[10] = biological target: HexA2S(a1-4)GlcNS6S(a1-4)IdoA2S(a1-4)GlcNS6S(a1-4)IdoA2S(a1-4)GlcNS6S(a1-4)IdoA2S(a1-4)GlcNS6S(a1-4)IdoA2S(a1-4)GlcNS6S(a1-4)IdoA2S(a1-4)GlcNS6S(a1-4)IdoA2S(a1-4)GlcNS6S(a1-4)IdoA2S(a1-4)GlcNS6S(a1-4)IdoA2S
Summary of the method: as §1

Kdn(a2-3)Gal(b1-3)GalNAc = biological target: Kdn(a2-3)Gal(b1-3)GalNAc
Summary of the method: as §1

Kdn(a2-3)Gal(b1-3)GlcNAc = biological target: Kdn(a2-3)Gal(b1-3)GlcNAc
Summary of the method: as §1

Kdn(a2-3)Gal(b1-4)Glc = biological target: Kdn(a2-3)Gal(b1-4)Glc
Summary of the method: as §1

Kdn(a2-3)Gal(b1-4)GlcNAc = biological target: Kdn(a2-3)Gal(b1-4)GlcNAc
Summary of the method: as §1

[11] = biological target: Kdn(a2-3)Gal(b1-4)[Fuc(a1-3)]GlcNAc
Summary of the method: as §1

Kdn(a2-6)Gal(b1-4)GlcNAc = biological target: Kdn(a2-6)Gal(b1-4)GlcNAc
Summary of the method: as §1

Man(a1-2)Man = biological target: Man(a1-2)Man
Summary of the method: as §1

[12] = biological target: Man(a1-2)Man(a1-2)Man(a1-3)Man
Summary of the method: as §1

[13] = biological target: Man(a1-2)Man(a1-2)Man(a1-3)[Man(a1-2)Man(a1-3)[Man(a1-2)Man(a1-6)]Man(a1-6)]Man(b1-4)GlcNAc(b1-4)GlcNAc
Summary of the method: as §1

[14] = biological target: Man(a1-2)Man(a1-2)Man(a1-3)[Man(a1-2)Man(a1-6)[Man(a1-3)]Man(a1-6)]Man(b1-4)GlcNAc(b1-4)GlcNAc
Summary of the method: as §1

[15] = biological target: Man(a1-2)Man(a1-2)Man(a1-3)[Man(a1-3)[Man(a1-6)]Man(a1-6)]Man(b1-4)GlcNAc(b1-4)GlcNAc
Summary of the method: as §1

[16] = biological target: Man(a1-2)Man(a1-2)Man(a1-6)[Man(a1-3)]Man
Summary of the method: as §1

Man(a1-2)Man(a1-3)Man = biological target: Man(a1-2)Man(a1-3)Man
Summary of the method: as §1

[17] = biological target: Man(a1-2)Man(a1-3)[Man(a1-2)Man(a1-6)[Man(a1-3)]Man(a1-6)]Man(b1-4)GlcNAc(b1-4)GlcNAc
Summary of the method: as §1

[18] = biological target: Man(a1-2)Man(a1-3)[Man(a1-2)Man(a1-6)]Man
Summary of the method: as §1

[19] = biological target: Man(a1-2)Man(a1-3)[Man(a1-2)Man(a1-6)]Man(a1-6)[Man(a1-2)Man(a1-2)Man(a1-3)]Man
Summary of the method: as §1

[20] = biological target: Man(a1-2)Man(a1-3)[Man(a1-2)Man(a1-6)]Man(a1-6)[Man(a1-2)Man(a1-2)Man(a1-3)]Man(b1-4)GlcNAc(b1-4)GlcNAc
Summary of the method: as §1

[21] = biological target: Man(a1-2)Man(a1-3)[Man(a1-3)[Man(a1-6)]Man(a1-6)]Man(b1-4)GlcNAc(b1-4)GlcNAc
Summary of the method: as §1

[22] = biological target: Man(a1-2)Man(a1-3)[Man(a1-6)]Man(a1-6)[Man(a1-2)Man(a1-3)]Man(b1-4)GlcNAc(b1-4)GlcNAc
Summary of the method: as §1

[23] = biological target: Man(a1-2)Man(a1-6)[Man(a1-3)]Man(a1-6)[Man(a1-2)Man(a1-2)Man(a1-3)]Man
Summary of the method: as §1

[24] = biological target: Man(a1-2)Man(a1-6)[Man(a1-3)]Man(a1-6)[Man(a1-2)Man(a1-2)Man(a1-3)]Man(b1-4)GlcNAc(b1-4)GlcNAc
Summary of the method: as §1

Man(a1-3)Man = biological target: Man(a1-3)Man
Summary of the method: as §1

[25] = biological target: Man(a1-3)Man(a1-6)[Man(a1-3)]Man(b1-4)GlcNAc(b1-4)GlcNAc
Summary of the method: as §1

Man(a1-3)Man(b1-4)GlcNAc = biological target: Man(a1-3)Man(b1-4)GlcNAc
Summary of the method: as §1

Man(a1-3)[Man(a1-6)]Man = biological target: Man(a1-3)[Man(a1-6)]Man
Summary of the method: as §1

[26] = biological target: Man(a1-3)[Man(a1-6)]Man(a1-6)Man(b1-4)GlcNAc(b1-4)GlcNAc
Summary of the method: as §1

[27] = biological target: Man(a1-3)[Man(a1-6)]Man(a1-6)[Man(a1-2)Man(a1-3)]Man(b1-4)GlcNAc(b1-4)GlcNAc
Summary of the method: as §1

[28] = biological target: Man(a1-3)[Man(a1-6)]Man(a1-6)[Man(a1-3)]Man
Summary of the method: as §1

[29] = biological target: Man(a1-3)[Man(a1-6)]Man(a1-6)[Man(a1-3)]Man(b1-4)GlcNAc(b1-4)GlcNAc
Summary of the method: as §1

[30] = biological target: Man(a1-3)[Man(a1-6)]Man(b1-4)GlcNAc(b1-4)GlcNAc
Summary of the method: as §1

[31] = biological target: Man(a1-3)[Man(a1-6)]Man(b1-4)GlcNAc(b1-4)[Fuc(a1-6)]GlcNAc
Summary of the method: as §1

Man(a1-6)Man = biological target: Man(a1-6)Man
Summary of the method: as §1

[32] = biological target: Man(a1-6)Man(b1-4)GlcNAc(b1-4)GlcNAc
Summary of the method: as §1

B1: Banana lectin (Musa acuminata) (protein)
chain: MNGAIKVGAWGGNGGSAFDMGPAYRIISVKIFSGDVVDGVDVTFTYYGKTETRHYGGSGGTPHEIVLQEGEYLVGMAGEVANYHGAVVLGKLGFSTNKKAYGPFGNTGGTPFSLPIAAGKISGFFGRGGKFLDAIGVYLEPLEHHHHHH
- glycan array binding signal (z-score) (GlcNAc(b1-4)GlcNAc): -0.201
- glycan array binding signal (z-score) [1]: -0.259
- glycan array binding signal (z-score) [2]: -0.211
- glycan array binding signal (z-score) [3]: -0.209
- glycan array binding signal (z-score) [4]: -0.218
- glycan array binding signal (z-score) [5]: -0.191
- glycan array binding signal (z-score) (GlcNAc(b1-6)GalNAc): -0.228
- glycan array binding signal (z-score) [6]: -0.197
- glycan array binding signal (z-score) [7]: -0.99
- glycan array binding signal (z-score) [8]: -0.99
- glycan array binding signal (z-score) [9]: -0.99
- glycan array binding signal (z-score) [10]: -0.99
- glycan array binding signal (z-score) (Kdn(a2-3)Gal(b1-3)GalNAc): -0.211
- glycan array binding signal (z-score) (Kdn(a2-3)Gal(b1-3)GlcNAc): -0.19
- glycan array binding signal (z-score) (Kdn(a2-3)Gal(b1-4)Glc): -0.261
- glycan array binding signal (z-score) (Kdn(a2-3)Gal(b1-4)GlcNAc): -0.203
- glycan array binding signal (z-score) [11]: -0.237
- glycan array binding signal (z-score) (Kdn(a2-6)Gal(b1-4)GlcNAc): -0.193
- glycan array binding signal (z-score) (Man(a1-2)Man): -0.865
- glycan array binding signal (z-score) [12]: 1.68
- glycan array binding signal (z-score) [13]: 1.64
- glycan array binding signal (z-score) [14]: 1.78
- glycan array binding signal (z-score) [15]: 1.06
- glycan array binding signal (z-score) [16]: 6.19
- glycan array binding signal (z-score) (Man(a1-2)Man(a1-3)Man): 2.25
- glycan array binding signal (z-score) [17]: 1.89
- glycan array binding signal (z-score) [18]: 4.51
- glycan array binding signal (z-score) [19]: 5.96
- glycan array binding signal (z-score) [20]: 2.62
- glycan array binding signal (z-score) [21]: 0.545
- glycan array binding signal (z-score) [22]: 8.11
- glycan array binding signal (z-score) [23]: 3.34
- glycan array binding signal (z-score) [24]: 6.29
- glycan array binding signal (z-score) (Man(a1-3)Man): -0.842
- glycan array binding signal (z-score) [25]: 0.154
- glycan array binding signal (z-score) (Man(a1-3)Man(b1-4)GlcNAc): 0.062
- glycan array binding signal (z-score) (Man(a1-3)[Man(a1-6)]Man): 2.38
- glycan array binding signal (z-score) [26]: 0.352
- glycan array binding signal (z-score) [27]: 13.1
- glycan array binding signal (z-score) [28]: 0.187
- glycan array binding signal (z-score) [29]: 2.4
- glycan array binding signal (z-score) [30]: 4.01
- glycan array binding signal (z-score) [31]: 2.88
- glycan array binding signal (z-score) (Man(a1-6)Man): 0.36
- glycan array binding signal (z-score) [32]: 0.917
